From the supplement of paper PMC8728848
The other results are listed elsewhere or left out.

Experiments:
Test in all cases: glycan array binding signal (z-score within array); higher = stronger binding
Conditions in all cases: glycan notation: IUPAC condensed, linker removed
[1] = target: Man(b1-4)GlcNAc
Outline: (§1)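 Glycan array data came from 3228 arrays in the Consortium for Functional Glycomics database, and only arrays with an available protein sequence were kept. Glycan names were put into IUPAC-condensed notation, and columns mapping to the same glycan were averaged. The binding signal is a within-array Z-score, averaged across arrays of one protein sequence run at different concentrations or buffers and across linkers. A negative Z-score can be read as non-binding.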

[2] = target: Neu5Ac(a2-3)Gal
Outline: as §1

[3] = target: Neu5Ac(a2-3)Gal(b1-3)GalNAc
Outline: as §1

[4] = target: Neu5Ac(a2-3)Gal(b1-3)GalNAc(b1-3)Gal(a1-4)Gal(b1-4)Glc
Outline: as §1

[5] = target: Neu5Ac(a2-3)Gal(b1-3)GalNAc(b1-4)[Neu5Ac(a2-3)]Gal(b1-4)Glc
Outline: as §1

[6] = target: Neu5Ac(a2-3)Gal(b1-3)GalNAc6S
Outline: as §1

[7] = target: Neu5Ac(a2-3)Gal(b1-3)GlcNAc
Outline: as §1

[8] = target: Neu5Ac(a2-3)Gal(b1-3)GlcNAc(b1-3)Gal(b1-3)GlcNAc
Outline: as §1

[9] = target: Neu5Ac(a2-3)Gal(b1-3)GlcNAc(b1-3)Gal(b1-4)GlcNAc
Outline: as §1

[10] = target: Neu5Ac(a2-3)Gal(b1-3)GlcNAc6S
Outline: as §1

[11] = target: Neu5Ac(a2-3)Gal(b1-3)[Fuc(a1-4)]GlcNAc
Outline: as §1

[12] = target: Neu5Ac(a2-3)Gal(b1-3)[Fuc(a1-4)]GlcNAc(b1-3)Gal(b1-4)[Fuc(a1-3)]GlcNAc
Outline: as §1

[13] = target: Neu5Ac(a2-3)Gal(b1-3)[Neu5Ac(a2-3)Gal(b1-4)]GlcNAc
Outline: as §1

[14] = target: Neu5Ac(a2-3)Gal(b1-3)[Neu5Ac(a2-6)]GalNAc
Outline: as §1

[15] = target: Neu5Ac(a2-3)Gal(b1-4)Glc
Outline: as §1

[16] = target: Neu5Ac(a2-3)Gal(b1-4)GlcNAc
Outline: as §1

[17] = target: Neu5Ac(a2-3)Gal(b1-4)GlcNAc(b1-3)Gal(b1-3)GlcNAc
Outline: as §1

[18] = target: Neu5Ac(a2-3)Gal(b1-4)GlcNAc(b1-3)Gal(b1-4)GlcNAc
Outline: as §1

[19] = target: Neu5Ac(a2-3)Gal(b1-4)GlcNAc(b1-3)Gal(b1-4)GlcNAc(b1-3)Gal(b1-4)GlcNAc
Outline: as §1

[20] = target: Neu5Ac(a2-3)Gal(b1-4)GlcNAc(b1-3)Gal(b1-4)[Fuc(a1-3)]GlcNAc
Outline: as §1

[21] = target: Neu5Ac(a2-3)Gal(b1-4)GlcNAc(b1-6)[Gal(b1-3)]GalNAc
Outline: as §1

[22] = target: Neu5Ac(a2-3)Gal(b1-4)GlcNAc6S
Outline: as §1

[23] = target: Neu5Ac(a2-3)Gal(b1-4)[Fuc(a1-3)]GlcNAc
Outline: as §1

[24] = target: Neu5Ac(a2-3)Gal(b1-4)[Fuc(a1-3)]GlcNAc(b1-3)Gal
Outline: as §1

[25] = target: Neu5Ac(a2-3)Gal(b1-4)[Fuc(a1-3)]GlcNAc(b1-3)Gal(b1-4)GlcNAc
Outline: as §1

[26] = target: Neu5Ac(a2-3)Gal(b1-4)[Fuc(a1-3)]GlcNAc(b1-3)Gal(b1-4)[Fuc(a1-3)]GlcNAc(b1-3)Gal(b1-4)[Fuc(a1-3)]GlcNAc
Outline: as §1

[27] = target: Neu5Ac(a2-3)Gal(b1-4)[Fuc(a1-3)]GlcNAc6S
Outline: as §1

[28] = target: Neu5Ac(a2-3)Gal6S(b1-4)GlcNAc
Outline: as §1

[29] = target: Neu5Ac(a2-3)Gal6S(b1-4)[Fuc(a1-3)]GlcNAc
Outline: as §1

[30] = target: Neu5Ac(a2-3)GalNAc
Outline: as §1

[31] = target: Neu5Ac(a2-3)GalNAc(b1-4)GlcNAc
Outline: as §1

[32] = target: Neu5Ac(a2-3)[GalNAc(b1-4)]Gal(b1-4)Glc
Outline: as §1

[33] = target: Neu5Ac(a2-3)[GalNAc(b1-4)]Gal(b1-4)GlcNAc
Outline: as §1

[34] = target: Neu5Ac(a2-3)[Neu5Ac(a2-6)]GalNAc
Outline: as §1

[35] = target: Neu5Ac(a2-6)Gal(b1-4)GlcNAc
Outline: as §1

[36] = target: Neu5Ac(a2-6)Gal(b1-4)GlcNAc(b1-2)Man(a1-3)[Neu5Ac(a2-6)Gal(b1-4)GlcNAc(b1-2)Man(a1-6)]Man(b1-4)GlcNAc(b1-4)GlcNAc
Outline: as §1

[37] = target: Neu5Ac(a2-6)Gal(b1-4)GlcNAc(b1-3)Gal(b1-4)GlcNAc
Outline: as §1

[38] = target: Neu5Ac(a2-6)Gal(b1-4)GlcNAc(b1-3)Gal(b1-4)[Fuc(a1-3)]GlcNAc(b1-3)Gal(b1-4)[Fuc(a1-3)]GlcNAc
Outline: as §1

[39] = target: Neu5Ac(a2-6)Gal(b1-4)GlcNAc6S
Outline: as §1

[40] = target: Neu5Ac(a2-6)GalNAc
Outline: as §1

[41] = target: Neu5Ac(a2-6)GalNAc(b1-4)GlcNAc
Outline: as §1

[42] = target: Neu5Ac(a2-8)Neu5Ac
Outline: as §1

[43] = target: Neu5Ac(a2-8)Neu5Ac(a2-3)Gal(b1-4)Glc
Outline: as §1

[44] = target: Neu5Ac(a2-8)Neu5Ac(a2-3)[GalNAc(b1-4)]Gal(b1-4)Glc
Outline: as §1

[45] = target: Neu5Ac(a2-8)Neu5Ac(a2-8)Neu5Ac
Outline: as §1

[46] = target: Neu5Ac(a2-8)Neu5Ac(a2-8)Neu5Ac(a2-3)Gal(b1-4)Glc
Outline: as §1

[47] = target: Neu5Ac(a2-8)Neu5Ac(a2-8)Neu5Ac(a2-3)[GalNAc(b1-4)]Gal(b1-4)Glc
Outline: as §1

[48] = target: Neu5Ac(a2-8)Neu5Ac(a2-8)Neu5Ac(a2-8)Neu5Ac(a2-3)[GalNAc(b1-4)]Gal(b1-4)Glc
Outline: as §1

[49] = target: Neu5Ac9Ac(a2-6)Gal(b1-4)GlcNAc
Outline: as §1

[50] = target: Neu5Gc(a2-3)Gal(b1-3)GlcNAc
Outline: as §1

[51] = target: Neu5Gc(a2-3)Gal(b1-3)[Fuc(a1-4)]GlcNAc
Outline: as §1

[52] = target: Neu5Gc(a2-3)Gal(b1-4)Glc
Outline: as §1

[53] = target: Neu5Gc(a2-3)Gal(b1-4)GlcNAc
Outline: as §1

[54] = target: Neu5Gc(a2-3)Gal(b1-4)[Fuc(a1-4)]GlcNAc
Outline: as §1

[55] = target: Neu5Gc(a2-6)Gal(b1-4)GlcNAc
Outline: as §1

[56] = target: Neu5Gc(a2-6)GalNAc
Outline: as §1

B1: STA (Solanum tuberosum), Q9S8M0 (protein)
chain: NASPPSPSPLPYPQCGMKKGGGKCIKTGECCSIWGWCGTTNAYCSPGYCQKQCPGPYPEGRCGWQANGKSCPTGTGQCCSNGGWCGTTSDYCASKNCQSQCKLPSPPPPPPPPSPPPPSPPSPPPPSPPPPPPPSPPPPSPPPPSPSPPPPPASPPPPPPALPYPQCGIKKGGGKCIKTGECCSIWGWCGTTNAYCSPGYCQKQCPGPYPEGRCGWQANGKSCPTGTGHCCSNAGWCGTTSDYCAPVNCQAQCNTTTLTSPIKNRMRGIESFMLNVV
**Q.** For B1, which “glycan array binding signal (z-score)” value [1] is on record?
**A.** -0.269

**Q.** And the “glycan array binding signal (z-score)” value [2]?
**A.** -0.56

**Q.** What about the “glycan array binding signal (z-score)” value [3] of the same binder?
**A.** -0.571

**Q.** What about the “glycan array binding signal (z-score)” value [4] of the same binder?
**A.** -0.585

**Q.** What about the “glycan array binding signal (z-score)” value [5] of the same binder?
**A.** -0.577

**Q.** And the “glycan array binding signal (z-score)” value [6]?
**A.** -0.558

**Q.** And the “glycan array binding signal (z-score)” value [7]?
**A.** -0.53

**Q.** What about the “glycan array binding signal (z-score)” value [8] of the same binder?
**A.** -0.575

**Q.** And the “glycan array binding signal (z-score)” value [9]?
**A.** 1.81

**Q.** What about the “glycan array binding signal (z-score)” value [10] of the same binder?
**A.** -0.579

**Q.** What about the “glycan array binding signal (z-score)” value [11] of the same binder?
**A.** -0.574

**Q.** What about the “glycan array binding signal (z-score)” value [12] of the same binder?
**A.** -0.589

**Q.** And the “glycan array binding signal (z-score)” value [13]?
**A.** -0.532

**Q.** What about the “glycan array binding signal (z-score)” value [14] of the same binder?
**A.** -0.575

**Q.** What about the “glycan array binding signal (z-score)” value [15] of the same binder?
**A.** -0.584

**Q.** And the “glycan array binding signal (z-score)” value [16]?
**A.** 1.9

**Q.** And the “glycan array binding signal (z-score)” value [17]?
**A.** -0.499

**Q.** And the “glycan array binding signal (z-score)” value [18]?
**A.** 1.64

**Q.** What about the “glycan array binding signal (z-score)” value [19] of the same binder?
**A.** 1.71

**Q.** What about the “glycan array binding signal (z-score)” value [20] of the same binder?
**A.** -0.571

**Q.** And the “glycan array binding signal (z-score)” value [21]?
**A.** -0.127

**Q.** What about the “glycan array binding signal (z-score)” value [22] of the same binder?
**A.** 1.68

**Q.** And the “glycan array binding signal (z-score)” value [23]?
**A.** 0.557

**Q.** And the “glycan array binding signal (z-score)” value [24]?
**A.** -0.57

**Q.** What about the “glycan array binding signal (z-score)” value [25] of the same binder?
**A.** 1.81

**Q.** What about the “glycan array binding signal (z-score)” value [26] of the same binder?
**A.** -0.597

**Q.** And the “glycan array binding signal (z-score)” value [27]?
**A.** -0.531

**Q.** What about the “glycan array binding signal (z-score)” value [28] of the same binder?
**A.** -0.552

**Q.** And the “glycan array binding signal (z-score)” value [29]?
**A.** -0.565

**Q.** What about the “glycan array binding signal (z-score)” value [30] of the same binder?
**A.** -0.579

**Q.** What about the “glycan array binding signal (z-score)” value [31] of the same binder?
**A.** 2.22

**Q.** What about the “glycan array binding signal (z-score)” value [32] of the same binder?
**A.** -0.579

**Q.** What about the “glycan array binding signal (z-score)” value [33] of the same binder?
**A.** 1.89

**Q.** And the “glycan array binding signal (z-score)” value [34]?
**A.** -0.567

**Q.** And the “glycan array binding signal (z-score)” value [35]?
**A.** -0.574

**Q.** What about the “glycan array binding signal (z-score)” value [36] of the same binder?
**A.** -0.571

**Q.** And the “glycan array binding signal (z-score)” value [37]?
**A.** 1.98

**Q.** What about the “glycan array binding signal (z-score)” value [38] of the same binder?
**A.** -0.578

**Q.** What about the “glycan array binding signal (z-score)” value [39] of the same binder?
**A.** -0.529

**Q.** And the “glycan array binding signal (z-score)” value [40]?
**A.** -0.587

**Q.** What about the “glycan array binding signal (z-score)” value [41] of the same binder?
**A.** -0.489

**Q.** And the “glycan array binding signal (z-score)” value [42]?
**A.** -0.57

**Q.** And the “glycan array binding signal (z-score)” value [43]?
**A.** -0.585

**Q.** And the “glycan array binding signal (z-score)” value [44]?
**A.** -0.574

**Q.** What about the “glycan array binding signal (z-score)” value [45] of the same binder?
**A.** -0.577

**Q.** And the “glycan array binding signal (z-score)” value [46]?
**A.** -0.578

**Q.** What about the “glycan array binding signal (z-score)” value [47] of the same binder?
**A.** -0.571

**Q.** What about the “glycan array binding signal (z-score)” value [48] of the same binder?
**A.** -0.572

**Q.** What about the “glycan array binding signal (z-score)” value [49] of the same binder?
**A.** -0.557

**Q.** And the “glycan array binding signal (z-score)” value [50]?
**A.** -0.567

**Q.** What about the “glycan array binding signal (z-score)” value [51] of the same binder?
**A.** -0.58

**Q.** And the “glycan array binding signal (z-score)” value [52]?
**A.** -0.591

**Q.** What about the “glycan array binding signal (z-score)” value [53] of the same binder?
**A.** 1.78

**Q.** What about the “glycan array binding signal (z-score)” value [54] of the same binder?
**A.** -0.361

**Q.** And the “glycan array binding signal (z-score)” value [55]?
**A.** -0.594

**Q.** What about the “glycan array binding signal (z-score)” value [56] of the same binder?
**A.** -0.576
